Test results from PMC5892938.
This is one part of the list. At the low end of the ranking the order means little.

target: GST-SBP-SLBP (stem-loop binding protein) (UniProt Q14493); experiment: targeted RNA Bind-n-Seq; settings: RBNS binding buffer: 25 mM Tris pH 7.5, 150 mM KCl, 3 mM MgCl2, 0.1% Tween, 0.5 mg/mL BSA, 1 mM DTT; 27 nM protein, 750 pM RNA pool; temperature not stated; high values mean tight binding;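 note: DESeq read counts versus GST-SBP nonspecific binding control pulldown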

Sequence | binding signal (log2 fold change)
GGUCACGUCUCAAUCAACUCUUCGCCCAGGGAAAACCCUGGUAAUUUCAACAGCUCGCAGUCAAG | -0.174
GGUCACGUCUCAAUCAACUCACAAGAGGGGGGGAAAACCCCUUUGCCCUCGAUAUCAACAGCUCGCAGUCAAG | 0.468
GGUCACGUCUCAAUCAACUCAAUCCCCAGGGAAAGCCCUGGCAAUUUCAACAGCUCGCAGUCAAG | -0.129
GGUCACGUCUCAAUCAACUCAAUAGAGGGGGGGAAAACCCCUUUACCCUCAUACUCAACAGCUCGCAGUCAAG | -0.0281
GGUCACGUCUCAAUCAACUCAUCUUCAGGAGUUUACUCCUGUUAUCUCAACAGCUCGCAGUCAAG | 0.106
GGUCACGUCUCAAUCAACUCAACUUCAGGAGUUUGCUCCUGCUUUUUCAACAGCUCGCAGUCAAG | -0.0543
GGUCACGUCUCAAUCAACUCUACUUCAGGAGUUUUCUCCUGUAAUCUCAACAGCUCGCAGUCAAG | 0.0687
GGUCACGUCUCAAUCAACUCAUCCUCAGGAGUUUGCUCCUGUUUAUUCAACAGCUCGCAGUCAAG | 0.187
GGUCACGUCUCAAUCAACUCAACUCCAGGAGUUUCCUCCUGCAUUUUCAACAGCUCGCAGUCAAG | 0.145
GGUCACGUCUCAAUCAACUCUAGUCCAGGAGUUUCCUCCUGCUUAUUCAACAGCUCGCAGUCAAG | -0.147
GGUCACGUCUCAAUCAACUCAUCGUCAGGAGUUUCCUCCUGUUAAUUCAACAGCUCGCAGUCAAG | 0.0271
GGUCACGUCUCAAUCAACUCUAUAGAGGGGGGGAAAACCCCUUUGCCCUCCACAUCAACAGCUCGCAGUCAAG | -0.206
GGUCACGUCUCAAUCAACUCAACUUCAGGAGUUUUCUCCUGCUUUCUCAACAGCUCGCAGUCAAG | -0.11
GGUCACGUCUCAAUCAACUCUACUCCCAGGGAAACCCCUGGUUUUCUCAACAGCUCGCAGUCAAG | 0.0669
GGUCACGUCUCAAUCAACUCAUUUCCAGGAGUUUUCUCCUGUUAACUCAACAGCUCGCAGUCAAG | 0.0261
GGUCACGUCUCAAUCAACUCAUGUCCAGGAGUUUCCUCCUGUUAUUUCAACAGCUCGCAGUCAAG | 0.0938
GGUCACGUCUCAAUCAACUCUUUCUCCAGGGAAACCCCUGGUAUAUUCAACAGCUCGCAGUCAAG | -0.0647
GGUCACGUCUCAAUCAACUCUUCCCCCAGGGAAAUCCCUGGUAAUGUCAACAGCUCGCAGUCAAG | 0.109
GGUCACGUCUCAAUCAACUCAAUCUCCAGGGAAACCCCUGGUUUAUUCAACAGCUCGCAGUCAAG | -0.129
GGUCACGUCUCAAUCAACUCCCUCGAGGGGGGGAAAACCCCUUUACCCUCAUAUUCAACAGCUCGCAGUCAAG | -0.453
GGUCACGUCUCAAUCAACUCUAUCGAGGGGGGGAAAACCCCUUUACCCUCAUCGUCAACAGCUCGCAGUCAAG | -0.193
GGUCACGUCUCAAUCAACUCAUCGCCAGGAGUUUCCUCCUGUUAUCUCAACAGCUCGCAGUCAAG | 0.00295
GGUCACGUCUCAAUCAACUCAAUUCCCAGGGAAAUCCCUGGCUUAUUCAACAGCUCGCAGUCAAG | 0.0452
GGUCACGUCUCAAUCAACUCUUCUCCAGGAGUUUUCUCCUGUUAUGUCAACAGCUCGCAGUCAAG | 0.0611

Sequence | binding signal (log2 fold change)
GGUCACGUCUCAAUCAACUCAACUCCAGGAGUUUUCUCCUGCUAUGUCAACAGCUCGCAGUCAAG | 0.0483
GGUCACGUCUCAAUCAACUCAAUUCCCAGGGAAAUCCCUGGUUUAUUCAACAGCUCGCAGUCAAG | -0.125
GGUCACGUCUCAAUCAACUCUAUCUCAGGAGUUUUCUCCUGCUAUGUCAACAGCUCGCAGUCAAG | 0.203
GGUCACGUCUCAAUCAACUCUAUCCCAGGAGUUUUCUCCUGUUUUCUCAACAGCUCGCAGUCAAG | 0.172
GGUCACGUCUCAAUCAACUCUAUUCCAGGAGUUUUCUCCUGCUUUUUCAACAGCUCGCAGUCAAG | -0.0627
GGUCACGUCUCAAUCAACUCAUCUUCAGGAGUUUGCUCCUGUUAUCUCAACAGCUCGCAGUCAAG | -0.0237
GGUCACGUCUCAAUCAACUCUACUUCAGGAGUUUCCUCCUGUAAUUUCAACAGCUCGCAGUCAAG | -0.0717
GGUCACGUCUCAAUCAACUCUUCCUCAGGAGUUUUCUCCUGCUUACUCAACAGCUCGCAGUCAAG | 0.157
GGUCACGUCUCAAUCAACUCAAUCCCCAGGGAAACCCCUGGCUUUUUCAACAGCUCGCAGUCAAG | 0.176
GGUCACGUCUCAAUCAACUCACAUGAGGGGGGGAAAACCCCUUUACCCUCUACAUCAACAGCUCGCAGUCAAG | -0.45
GGUCACGUCUCAAUCAACUCUCUAGAGGGGGGGAAAACCCCUUUUCCCUCAAAAUCAACAGCUCGCAGUCAAG | -0.174
GGUCACGUCUCAAUCAACUCCCAAGAGGGGGGGAAAACCCCUUUACCCUCCACGUCAACAGCUCGCAGUCAAG | 0.0362
GGUCACGUCUCAAUCAACUCAGUCUCAGGAGUUUCCUCCUGCUUUCUCAACAGCUCGCAGUCAAG | -0.147
GGUCACGUCUCAAUCAACUCUACUUCCAGGGAAACCCCUGGCGUUUUCAACAGCUCGCAGUCAAG | -0.0329
GGUCACGUCUCAAUCAACUCAGUUCCAGGAGUUUCCUCCUGUAUUUUCAACAGCUCGCAGUCAAG | 0.133
GGUCACGUCUCAAUCAACUCUUAAGAGGGGGGGAAAACCCCUUUGCCCUCCAAAUCAACAGCUCGCAGUCAAG | -0.0684
GGUCACGUCUCAAUCAACUCUAUCCCCAGGGAAAGCCCUGGUUAAUUCAACAGCUCGCAGUCAAG | 0.217
GGUCACGUCUCAAUCAACUCACAAGAGGGGGGGAAAACCCCUUUGCCCUCAAAAUCAACAGCUCGCAGUCAAG | -0.042
GGUCACGUCUCAAUCAACUCUUUUUCAGGAGUUUCCUCCUGCUUACUCAACAGCUCGCAGUCAAG | -0.16
GGUCACGUCUCAAUCAACUCCUAAGAGGGGGGGAAAACCCCUUUACCCUCAACAUCAACAGCUCGCAGUCAAG | 0.0781
GGUCACGUCUCAAUCAACUCUACUCCCAGGGAAAACCCUGGUAUACUCAACAGCUCGCAGUCAAG | -0.0826
GGUCACGUCUCAAUCAACUCCUCAGAGGGGGGGAAAACCCCUUUGCCCUCAUCAUCAACAGCUCGCAGUCAAG | -0.176
GGUCACGUCUCAAUCAACUCCCAAGAGGGGGGGAAAACCCCUUUACCCUCAUAAUCAACAGCUCGCAGUCAAG | -0.264
